{
  "source": "patent US8658646B2",
  "about": "“Pyrrolopyrazine kinase inhibitors” (Hoffmann-LaRoche Inc., priority 2011, dated 2014)",
  "molecular_target": "T1, JAK3: Recombinant human kinase domain (Homo sapiens, UniProt P52333)",
  "T1 construct": "JAK3: Recombinant human kinase domain from Millipore (Cat #14-629) or prepared; purchased Millipore 14-629",
  "T1 sequence (P52333 822-1111 limits assumed)": "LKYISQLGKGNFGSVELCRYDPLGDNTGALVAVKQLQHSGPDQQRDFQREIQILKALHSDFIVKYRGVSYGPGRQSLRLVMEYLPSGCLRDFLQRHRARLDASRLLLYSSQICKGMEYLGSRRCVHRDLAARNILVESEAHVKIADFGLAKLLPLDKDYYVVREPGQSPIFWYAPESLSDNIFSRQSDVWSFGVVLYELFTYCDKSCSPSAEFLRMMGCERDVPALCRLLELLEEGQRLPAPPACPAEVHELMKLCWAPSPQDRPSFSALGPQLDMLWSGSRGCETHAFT",
  "experiment": "Determination of IC50 of Janus Kinase (JAK) inhibition, radioactive end-point 33P-ATP assay, JAK3",
  "format": "biochemical",
  "settings": "ATP 1.5 uM, peptide 50 uM, 20 minutes, read-out: JAK3-INHIB-DR/v1~NO ADDITIVE~Enzyme_Conc = 100",
  "note": "A number of entries come with more than one value. This is not the full list of results. The source may hold further records. Values that stand side by side appear to be repeats (runs, samples, wells or individuals); a mean can stand among them. Brackets with × count equal records among those shown.",
  "data": [
    {"compound": "COCC(COC)NC(=O)c1c[nH]c2ncc(-c3nn(C)c4cc(Cl)ccc34)nc12", "note": "[Example I-166, 2-(6-Chloro-1-methyl-1H-indazol-3-yl)-5H-pyrrolo[2,3-b]pyrazine-7-carboxylic acid (2-methoxy-1-methoxymethyl-ethyl)-amide]", "values": [
      {"measurement": "IC50", "value": "12.6 nM, > 1 µM (2×), 12 nM [lines of one column]"}
    ]}
  ]
}
